# Among all 150,000 compounds or so, about 540 (0.36%) showed an effect of 50% or more. The list shows a part of the results.
# System: Plasmodium falciparum
# Assay: Primary screen in NF54 nanoGlo assay, in single point, at 2uM, 72h; a lower Z score goes with more inhibition
# Assay type: functional, Erythrocyte
# Settings: timepoint 72 hour
SMILES,% Inhibition [%],Z score
COc1ccc(-c2cn(CC(=O)Nc3ccc(F)cc3)nc2N(C)C)cc1,-12,1.39
Cc1cc(-c2ncccc2NC(=O)NC2CCC(S(C)(=O)=O)CC2)cs1 (stereo unspecified),-5,0.96
CC(C(=O)Nc1ccc2c(c1)OCCCO2)N1CC2(CCC2)C1C1CCCO1 (stereo unspecified),-17,1.7
COc1ccc2oc(CN[C@@H](C)Cn3cncn3)nc2c1,-16,2.75
CCCN1C[C@@H](NC(=O)c2ccccc2N2CCC(=O)NC2=O)CC1=O,-16,2.33
Cc1[nH]c(=O)[nH]c(=O)c1CC(=O)N(CCC(N)=O)Cc1ccccc1,-6,1.17
COc1cc2c(cc1-c1nc3c(cnn3[C@@H](C)c3ccccc3)[nH]1)OCO2,-4,0.78
CCn1nccc1C(=O)N1CC[C@H](Cn2c(C)cnc2C2CCC2)C1,-9,1.15
CCn1cnc2ccc(-c3noc(-c4ccccc4Br)n3)cc21,-22,2.4
Cc1cccc(OC[C@]2(CNS(=O)(=O)c3ccc(F)cc3)C[C@@H](O)[C@@H](O)C2)n1,11,-1.26
O=C1C2N=NN(Cc3nc(-c4ccc(Cl)cc4)no3)C2C(=O)N1c1cccc(F)c1 (stereo unspecified),-10,1.17
C[C@]1(CNC(=O)c2cc3n(n2)CCC3)CCOC1,-2,0.33
O=C(Cn1nccc1[C@H]1CCCNC1)NCc1csc2c1CCCC2,-7,0.89
CC(C)c1ccnc(N2C[C@@H]3CCC[C@H](C2)C(=O)N3)n1,-4,0.61
OC[C@H](CNc1cncc(Br)c1)Cc1ccccn1,-13,1.29
Cc1cc2ccccc2n1CC(=O)N1CCC[C@H]1c1nc2ccccc2s1,13,-1.68
COc1ccc(CC(=O)N[C@H]2CCN(c3cc(C)cc(C)c3)C2=O)cc1Cl,-4,0.62
CCc1nc2c(s1)[C@@H](NCc1nnc3n1CCCC3)CCC2,-3,0.37
CC[C@@H](C(=O)NC1(CO)CCCCC1)N(C)CC,-17,2.12
CC(C)n1cc(CN2CCC3(CCC(=O)N(CCc4ccccc4)C3)CC2)cn1,3,-0.52
CN(CCN(C)C1CCCC1)Cc1cccc2cc[nH]c12,-11,1.38
CN(Cc1ccc(C(=O)N(C)C)o1)CC1(CO)CCC1,-11,0.96
CCc1nc(-c2ccccc2)nc(N2CCN(C(=O)c3cccs3)CC2)c1Cc1ccc(C)cc1,-21,1.83
Cc1ccc(CC(=O)N2CCC3C(CCC(=O)N3C3CC3)C2)cn1 (stereo unspecified),-12,1.01
Cn1cc(C(F)(F)F)nc1[C@H]1CCCN(C(=O)Cc2ccnn2C)C1,-10,1.36
Cc1cc(S(=O)(=O)N[C@H]2COC[C@@H]2N2CCOCC2)c2ncccc2c1,-4,0.8
NC(=O)[C@H]1CC=CC[C@@H]1NC(=O)c1cccc(N)n1,-5,0.87

SMILES,% Inhibition [%],Z score
Cc1nc(CCCC(=O)N2CCCC(C)C2CN)cs1 (stereo unspecified),-10,1.38
CC(C)C[C@H]1C[C@@H](C(=O)NCc2ccccc2)[C@]2(N1)C(=O)Nc1ccccc12,6,-1.1
CC(=O)N1CCN(c2nnc(-c3ccccc3F)[nH]2)CC1,-3,0.4
COC[C@@H]1[C@H](C(=O)N2CCCc3ccccc32)CCC(=O)N1C,0,0.03
CC(=O)c1cccc(NC(=O)Cn2nc3c(N4CCN(c5ccc(C)cc5)CC4)nccn3c2=O)c1,-21,2.03
Cc1ccc(C)n1CC(=O)NC[C@H]1CCCN2CCCCC12 (stereo partly specified),-6,0.77
O=S(=O)(NCc1nc2cccnc2n1C1CCCC1)c1ccc(Cl)cc1,0,-0.04
CCOC(=O)N1CCN(C(=O)c2cnc(N(C)C)nc2C)CC1,-10,1.68
O=C(NC1CCCCCCC1)[C@@H]1CCCN1C(=O)c1ccco1,-6,0.58
Cc1ccc(-c2nc(CCN(C)C)no2)c(C)c1,-11,1.45
Cn1c(C(=O)NCC2CCCN3CCCC[C@H]23)cc2c(Cl)cccc21 (stereo partly specified),-1,0.11
N[C@H]1CCN(C(=O)c2cnn(-c3ncccc3Cl)c2C(F)(F)F)C1,-2,0.24
COc1cc(CNCc2ccco2)ccc1OCc1cccc(C)c1,36,-4.78
CC(CNC(CC1CCCCC1)c1ncccn1)N1CCOCC1 (stereo unspecified),-1,0.18
O=C(Nc1ccc(Oc2ccccc2)c(Cl)c1)N1CCOC[C@@H](CO)C1,-7,1.02
CC(C)(CNC(=O)N1CCC(c2ccon2)CC1)c1c(F)cccc1Cl,-4,0.63
COC(=O)C[C@@H]1Oc2ccccc2N(CCOCc2ccccc2)C1=O,15,-1.86
CC(C)N1C[C@@H](c2nc(-c3ccc(Br)o3)no2)CC1=O,-10,1.3
CC1CCCC(CCNS(=O)(=O)N2CCCC(C)C2)C1 (stereo unspecified),-2,0.4
Cc1onc(-c2cccs2)c1C(=O)N(C)CCN(C)c1ccc(S(N)(=O)=O)cc1,-3,0.48
CCC(C)c1ccc(C(NC(=O)CN(C)S(C)(=O)=O)C(C)C)cc1 (stereo unspecified),12,-1.49
Cc1ccc([C@@H]2CC(C3CCCCC3)=NN2S(C)(=O)=O)cc1,-6,1.11
COc1ccnc(CN2CCC[C@H]2C(=O)N2CCCCC2)c1,-9,1.69
Cc1ccn(CCN2C[C@@](C)(c3ccccc3)CCC2=O)n1,-3,0.36
Cc1nc2ccccn2c1CN1CCCC[C@H]1C(=O)N1CCOCC1,-1,0.09
O=C(c1cnccn1)N1CC(c2nc(-c3cccs3)no2)C1,-11,2.12
